# Hit rate of the full screen: of about 91,000 compounds, about 290 (0.32%) were called active. Inconclusive results, whose numbers are uncertain, are shown with a selection of clear calls. Calls follow the shape of the dose curve; as a rule, active = well fitted inhibition curve with a large enough effect; inconclusive = small, poorly fitted or top-dose-only effect; inactive = no such curve, though single readings can be large or run the other way. A potency beside an inconclusive call is a rough fit, not a confirmed value.
# Biological target: Single-stranded DNA cytosine deaminase (Homo sapiens) (UniProt Q9GZX7)
# Assay: Primary qHTS assay for inhibitors of Activation Induced Cytidine Deaminase (AID): AID signal; also: nearly all actives have a fitted effect of over 25% in size
# Settings: AID deamination FRET fluorescence, UDG-coupled, 4 h; activity change, negative = inhibition: at 115 µM (top of the series)
# % is scaled to controls: 0 for no effect and ±100 for the full control effect; potency is read from the fitted curve at half-maximal effect; tags tell the direction and shape of the fitted curve.
# UniProt Q9GZX7, sequence (Q9GZX7 whole entry, looked up): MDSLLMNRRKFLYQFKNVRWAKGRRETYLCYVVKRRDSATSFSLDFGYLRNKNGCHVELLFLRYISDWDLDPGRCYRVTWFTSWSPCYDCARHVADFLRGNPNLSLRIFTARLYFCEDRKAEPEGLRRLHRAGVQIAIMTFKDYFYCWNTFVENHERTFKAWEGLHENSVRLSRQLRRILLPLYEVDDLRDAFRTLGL
SMILES,Potency,"activity change, negative = inhibition"
CCCOc1ccc(-c2nn(-c3ccccc3)cc2C2NC(=O)NC(C)=C2C(=O)OC)cc1 (configuration not stated),"inconclusive: 39.8 µM [inhibitor, partial curve, poor fit]",–
COc1cccc(C(=O)Nc2cccc(NC(=O)c3ccc(Cl)cc3Cl)c2)c1,"inconclusive: 89.1 µM [inhibitor, partial curve, poor fit]",–
Cc1ccc(C)c(N2CCN(C(=O)c3cc4c(=O)n(Cc5ccco5)ccc4nc3C)CC2)c1,"inconclusive: 17.8 µM [inhibitor, full curve, poor fit]",–
Cc1nn(C)c2c1c(-c1ccccc1)cc(=O)n2Cc1ccccc1Cl,"inconclusive: 28.2 µM [inhibitor, full curve, poor fit]",–
COc1cccc(NCCC#N)c1,–,inactive: -0.406%
CS(=O)(=O)N(CC(=O)Nc1ccc(Br)cc1)c1ccccc1Br,–,inactive: -3.85%
Cc1ccc(CCCCCCCCCCCC(=O)O)cc1,"inconclusive: 89.1 µM [inhibitor, partial curve, poor fit]",–
CCc1ccc(CNCc2c(C(=O)O)c(C)n(Cc3c(F)cccc3Cl)c2C)cc1,"inconclusive: 70.8 µM [inhibitor, partial curve, poor fit]",–
Cc1nnc(SCC(=O)Nc2nncs2)n1C(C)C,–,inactive: 5.42%
O=C(O)c1c(-c2ccccc2)oc2ccc(OCc3ccc(Cl)c(Cl)c3)cc12,"inconclusive: 79.4 µM [inhibitor, partial curve, poor fit]",–
CC1CCC(Nc2ncnc3onc(-c4ccc(F)cc4)c23)CC1 (configuration not stated),"inconclusive: 79.4 µM [inhibitor, partial curve, poor fit]",–
Cc1cc(C)cc(NS(=O)(=O)c2ccc(-n3cccn3)cc2)c1,–,inactive: 18.3%
COCCCNC(=O)c1oc2c(c1C)-c1nn(Cc3ccc(Cl)cc3)cc1CC2,–,inactive: 30.4%
CC(C)c1ccc(C(=O)N2CCN(C/C=C/c3ccccc3)CC2)cc1,–,inactive: -5.23%
COc1ccc(C(=O)/C=C/c2cn(CC(O)CN(CC(C)C)CC(C)C)c3ccccc23)cc1 (configuration not stated),"inconclusive: 50.1 µM [inhibitor, partial curve, poor fit]",–
Cc1ccc(S(=O)(=O)c2nc(-c3ccccc3Cl)oc2N2CCCCCC2)cc1,"inconclusive: 56.2 µM [inhibitor, partial curve, poor fit]",–
ClC(/C=N/N1CCN(Cc2ccc(Cl)cc2)CC1)=C/c1ccccc1,–,inactive: -6.8%
COc1ccc(CCNc2ncnc3c2c(-c2ccccc2)cn3-c2ccc(F)cc2)cc1OC,"inconclusive: 14.1 µM [inhibitor, full curve]",–
Cc1cccc(C(=O)N2CCc3cc(CNC(=O)Cc4ccc(F)cc4)ccc32)c1,"inconclusive: 50.1 µM [inhibitor, full curve, poor fit]",–
COc1ccc(C(=O)Nc2nc3c(s2)CCc2cc(OC)ccc2-3)cc1,–,inactive: 79.4%
Cc1ccc(N2CCN(C(=O)c3c4c(nc5ccccc35)C(=O)N(C3CCCCC3)C4)CC2)c(C)c1,"inconclusive: 12.6 µM [inhibitor, partial curve, poor fit]",–

SMILES,Potency,"activity change, negative = inhibition"
Cc1n[nH]c(C)c1S(=O)(=O)N1CCCC(C(=O)Nc2ccc(Cl)cc2)C1 (configuration not stated),"inconclusive: 31.6 µM [inhibitor, full curve, poor fit]",–
CC(C)(C)n1cnc2cc(NCc3ccccc3Cl)ccc21,"inconclusive: 70.8 µM [inhibitor, single point]",–
C/C(=C\C(=O)O)C(=O)Nc1cccc(C(F)(F)F)c1,–,inactive: 1.4%
COc1ccc(OC)c(C2C(C(=O)c3ccco3)=C(O)C(=O)N2c2nc3ccc(C)cc3s2)c1 (configuration not stated),"inconclusive: 50.1 µM [inhibitor, partial curve, poor fit]",–
Cc1ccc2[nH]c(=S)nc(-c3ccccc3)c2c1,–,inactive: -5.12%
CCC(C(=O)NCc1ccccc1OC)n1nc(C)n2c(cc3sccc32)c1=O (configuration not stated),"inconclusive: 56.2 µM [inhibitor, partial curve, poor fit]",–
O=C(/C=C/c1cccc(Br)c1)c1cccc(O)c1,–,inactive: -16.9%
CC(C)Oc1ccc(-c2nc(N3CCCCC3)c3ccccc3n2)cc1,–,inactive: -15.7%
CCOc1ccc(C(=O)Nc2ccc3oc(-c4ccncc4)nc3c2)cc1[N+](=O)[O-],"inconclusive: 79.4 µM [inhibitor, single point]",–
CCOC(=O)c1cnc2ccc(C(=O)OC)cc2c1Nc1ccccc1CC,"inconclusive: 79.4 µM [inhibitor, single point]",–
CCOc1ccc(C2c3[nH]c4ccccc4c3CCN2C(=O)Cc2cccc(OCC)c2OCC)cc1 (configuration not stated),"inconclusive: 20 µM [inhibitor, full curve, poor fit]",–
COc1ccccc1CNC(=O)CCc1c(C)nc2cc(-c3ccccc3OC)nn2c1C,"inconclusive: 35.5 µM [inhibitor, single point]",–
CC(C)c1ccc(/C=C2\Oc3cc(OS(C)(=O)=O)ccc3C2=O)cc1,–,inactive: -10.1%
CCn1cc(C2N3CC4(CC)CN2CC(CC)(C3)C4=O)c2ccccc21 (configuration not stated),"inconclusive: 39.8 µM [inhibitor, single point]",–
CCOc1ccccc1CNc1ncnc2c1nc1n2CCCC1,–,inactive: 0.299%
O=C(C1CCCN(S(=O)(=O)c2cccc3nonc23)C1)N1CCN(c2cccc(Cl)c2)CC1 (configuration not stated),"inconclusive: 10 µM [inhibitor, full curve]",–
O=C(c1cnc2cc(-c3ccccc3)nn2c1)c1cc([N+](=O)[O-])ccc1O,"inconclusive: 50.1 µM [inhibitor, partial curve, poor fit]",–
COc1cccc(/C=C/c2nc(C#N)c(N3CCCCC3)o2)c1,"inconclusive: 28.2 µM [inhibitor, full curve, poor fit]",–
Cc1ccc(C)c(N2CCN(C(=O)Cn3ncc4c(=O)oc5ccc(C)cc5c43)CC2)c1,"inconclusive: 15.8 µM [inhibitor, full curve, poor fit]",–
CC(=O)NC12CC3CC(C1)CC(C(=O)NC1CCCc4ccccc41)(C3)C2 (configuration not stated),–,inactive: 0.816%
Oc1ccc(O)c([S+]2CCCC(C3CCCCC3)C2)c1 (configuration not stated),"inconclusive: 79.4 µM [inhibitor, single point]",–
